In the supplement of paper PMC12355420:
Counter-ions that a name gives are not always drawn. This is one part of the list. Rule as the data show it: active = 0.5 or less and inactive = the rest. Single values are uncertain, as repeats are few or missing.

test system: HeLa VPS33A R498W KI + HA-SDC1-FLAG; assay: relative GAG core protein HA-SDC1 amount per cell number vs DMSO (fraction of DMSO); higher = more SDC1 (GAG core protein); details: 50 µM; 24 h;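 also: HA-SDC1 level read out by In-Cell Western staining with an anti-HA antibody against the N-terminal tag, screening FDA-approved library drugs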

SMILES | relative GAG core protein HA-SDC1 amount per cell number
CC(C)/N=c1\cc2n(-c3ccc(Cl)cc3)c3ccccc3nc-2cc1Nc1ccc(Cl)cc1 [Clofazimine] | inactive: 1.05
CCN(CCO)CCCC(C)Nc1ccnc2cc(Cl)ccc12 (stereo unspecified) [Hydroxychloroquine Sulfate] | inactive: 0.875
Nc1nc(CC(=O)Nc2ccc(CCNC[C@H](O)c3ccccc3)cc2)cs1 [Mirabegron (YM178)] | inactive: 1.17
Cc1nc2n(c(=O)c1CCN1CCC(c3noc4cc(F)ccc34)CC1)CCCC2 [Risperidone] | inactive: 0.78
NC(=O)NO [Hydroxyurea] | inactive: 0.938
CC(C)(C)C(O)/C=C/c1ccc2c(c1)OCO2 (stereo unspecified) [Stiripentol] | active: 0.334
CNC(=O)c1ccc(N2C(=S)N(c3ccc(C#N)c(C(F)(F)F)c3)C(=O)C2(C)C)cc1F [MDV3100 (Enzalutamide)] | inactive: 0.973
COC(=O)c1ccc(O)cc1 [Methylparaben] | inactive: 0.827
O=P(O)(O)C(O)(Cn1ccnc1)P(=O)(O)O [Zoledronic Acid] | inactive: 0.621
c1cn2cc(-c3ccc4cn[nH]c4c3)nc(Nc3ccc(N4CCOCC4)cc3)c2n1 | inactive: 0.935
COC(=O)N[C@H](C(=O)N[C@@H](Cc1ccccc1)[C@@H](O)CN(Cc1ccc(-c2ccccn2)cc1)NC(=O)[C@@H](NC(=O)OC)C(C)(C)C)C(C)(C)C [Atazanavir] | inactive: 0.719

test system: HeLa VPS33A KO + NLuc-VPS33A R498W; assay: relative mutant VPS33A R498W amount (NanoLuc luminescence) vs DMSO (fraction of DMSO); HeLa model of a glycosaminoglycan (GAG) storage disease; KI is knock-in and KO knock-out; SDC1 is syndecan 1; higher = higher mutant VPS33A level; details: 50 µM; 24 h;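 also: screen of an FDA-approved drug library, NanoLuc luminescence read after lysing the treated cells, taken as a measure of mutant VPS33A protein stability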

SMILES | relative mutant VPS33A R498W amount
CCOC(=O)c1ncn2c1CN(C)C(=O)c1cc(F)ccc1-2 [Flumazenil] | 1.07
OC[C@@]1(O)OC[C@@H](O)[C@@H](O)[C@@H]1O [Fructose] | 0.971
CC(C(=O)O)c1ccc(C(=O)c2cccs2)cc1 (stereo unspecified) [Suprofen] | 1.46
CCC/C=C1\OC(=O)C2=C1CCC=C2 [Z-Ligustilide] | 1.24
C[C@H](NCc1ccc(OCc2cccc(F)c2)cc1)C(N)=O [Safinamide Mesylate] | 1.42
Nc1ncnc2c1ncn2[C@@H]1O[C@H](COP(=O)(O)OP(=O)(O)OP(=O)(O)O)[C@@H](O)[C@H]1O [Adenosine 5-triphosphate] | 1.09
O=C(O)c1cc(O)c2c(c1)[C@@H]([C@H]1c3cc(C(=O)O)cc(O)c3C(=O)c3c(O[C@@H]4O[C@H](CO)[C@@H](O)[C@H](O)[C@H]4O)cccc31)c1cccc(O[C@@H]3O[C@H](CO)[C@@H](O)[C@H](O)[C@H]3O)c1C2=O [Sennoside B] | 0.218
N=C(N)NCCCC[C@@H]1NC(=O)CCSSC[C@@H](C(N)=O)NC(=O)[C@@H]2CCCN2C(=O)[C@H](Cc2c[nH]c3ccccc23)NC(=O)[C@H](CC(=O)O)NC(=O)CNC1=O [Eptifibatide] | 1.26
C[N+]1(C)CCC(OC(=O)C(O)(c2ccccc2)C2CCCC2)C1 (stereo unspecified) [Glycopyrrolate] | 0.932
O=c1[nH]cc(F)c(=O)[nH]1 [Fluorouracil (Adrucil)] | 0.645
CCOc1nc2cccc(C(=O)O)c2n1Cc1ccc(-c2ccccc2-c2noc(=O)[nH]2)cc1 [Azilsartan] | 1.35
Cc1c(NC(=O)c2cccnc2)c(=O)n(-c2ccccc2)n1C [Nifenazone] | 0.867
NCCCS(=O)(=O)O [Tramiprosate] | 1.06
CC(C)[C@H](O)C(=O)N[C@@H](C)C(=O)N[C@@H]1C(=O)N(C)CCc2ccccc21 | 6.97
Cc1c(F)cc(C(=O)NC2CC2)cc1-c1ccc(C(=O)NCC(C)(C)C)cn1 [Losmapimod] | 0.753
O=C1NC(=O)[C@@H](c2cn3c4c(cccc24)CCC3)[C@@H]1c1c[nH]c2ccccc12 [Tivantinib (ARQ 197)] | 0.847
CS(=O)(=O)c1ccc(C(=O)Nc2ccc(Cl)c(-c3ccccn3)c2)c(Cl)c1 [GDC-0449 (Vismodegib)] | 0.925
CC#CC(=O)N1CCC[C@H]1c1nc(-c2ccc(C(=O)Nc3ccccn3)cc2)c2c(N)nccn12 | 0.141
CC#C[C@]1(O)CC[C@H]2[C@@H]3CCC4=CC(=O)CCC4=C3[C@@H](c3ccc(N(C)C)cc3)C[C@@]21C [Mifepristone] | 0.857
Nc1nc2c(ncn2[C@H]2C[C@H](O)[C@@H](CO)O2)c(=O)[nH]1 [2'-Deoxyguanosine] | 1.09

SMILES | relative mutant VPS33A R498W amount
Oc1cccc(O)c1 [Resorcinol] | 1.01
C/C=C1\[C@H]2C=C(C)C[C@]1(N)c1ccc(=O)[nH]c1C2 [(-)-Huperzine A] | 1.38
COc1c(C)c2c(c(O)c1C/C=C(\C)CCC(=O)OCCN1CCOCC1)C(=O)OC2 [Mycophenolate Mofetil] | 1.56
COc1cc2c(cc1OC)[C@@H]1Cc3ccc(OC)c(OC)c3CN1CC2 [Rotundine] | 0.665
Cc1ccc(-n2nc(C(C)(C)C)cc2NC(=O)NCc2cc(F)ccc2Oc2ccc3c(cnn3CCO)c2)cc1 [Pexmetinib (ARRY-614)] | 0.31
NC(=O)c1cccnc1 [Nicotinamide] | 1.3
CC(C)c1nc(CN(C)C(=O)N[C@@H](CCN2CCOCC2)C(=O)N[C@H](CC[C@H](Cc2ccccc2)NC(=O)OCc2cncs2)Cc2ccccc2)cs1 [Cobicistat (GS-9350)] | 0.276
CC(C)(O)CNc1nc(Nc2ccnc(C(F)(F)F)c2)nc(-c2cccc(C(F)(F)F)n2)n1 [AG-221 (Enasidenib)] | 1.46
C[C@H](CCC(=O)NCCS(=O)(=O)O)[C@H]1CC[C@H]2[C@@H]3[C@@H](O)C[C@@H]4C[C@H](O)CC[C@]4(C)[C@H]3CC[C@]12C [Sodium Tauroursodeoxycholate (TUDC)] | 1.43
CC(C)/N=c1\cc2n(-c3ccc(Cl)cc3)c3ccccc3nc-2cc1Nc1ccc(Cl)cc1 [Clofazimine] | 0.745
CCN(CCO)CCCC(C)Nc1ccnc2cc(Cl)ccc12 (stereo unspecified) [Hydroxychloroquine Sulfate] | 1.15
Nc1nc(CC(=O)Nc2ccc(CCNC[C@H](O)c3ccccc3)cc2)cs1 [Mirabegron (YM178)] | 0.947
Cc1nc2n(c(=O)c1CCN1CCC(c3noc4cc(F)ccc34)CC1)CCCC2 [Risperidone] | 0.524
NC(=O)NO [Hydroxyurea] | 1.04
CC(C)(C)C(O)/C=C/c1ccc2c(c1)OCO2 (stereo unspecified) [Stiripentol] | 0.139
CNC(=O)c1ccc(N2C(=S)N(c3ccc(C#N)c(C(F)(F)F)c3)C(=O)C2(C)C)cc1F [MDV3100 (Enzalutamide)] | 0.714
COC(=O)c1ccc(O)cc1 [Methylparaben] | 1.07
O=P(O)(O)C(O)(Cn1ccnc1)P(=O)(O)O [Zoledronic Acid] | 2.05
c1cn2cc(-c3ccc4cn[nH]c4c3)nc(Nc3ccc(N4CCOCC4)cc3)c2n1 | 0.91
COC(=O)N[C@H](C(=O)N[C@@H](Cc1ccccc1)[C@@H](O)CN(Cc1ccc(-c2ccccn2)cc1)NC(=O)[C@@H](NC(=O)OC)C(C)(C)C)C(C)(C)C [Atazanavir] | 0.657
